According to PubChem BioAssay AID463173 (ICCB-Longwood Screening Facility, Harvard Medical School, 2010):
Out of some 52,000 compounds screened, about 1,700 (3.3%) were called active. Cut-off read from the data, not from the text of the source: active = survival mostly below about 52% (no sharp cut-off); inactive = mostly above about 56%. Some of the results follow.

system: Wild type; assay: growth inhibition of S. aureus wild type versus tarO mutant, primary screen, teichoic acid synthesis inhibitors, RN4220, OD600 (AID 463173); conditions: S. aureus RN4220 wild type/DeltatarO growth, OD600, 18 h, hits give low values, screened at 18.75 µg/mL (by protocol)

Row | SMILES | survival
1 | CN(Cc1ccccc1)C(=O)C1CCN(S(=O)(=O)c2ccc3c(c2)oc(=O)n3C)CC1 | inactive: 94%
2 | COc1cc(CNC(=O)c2sc3ncccc3c2-n2cccc2)cc(OC)c1OC | inactive: 128%
3 | COc1cccc(C2CC(=O)Nc3cc(OC)c(OC)c(OC)c32)c1OC(C)C (stereo not given) | inactive: 87%
4 | Cc1cccc(Cn2c(=O)n(CC3CCC(C(=O)NC(C)C)CC3)c(=O)c3sccc32)c1 (stereo not given) | inactive: 77%
5 | CSc1ccc(CCNC(=O)C2=C(C)C(=O)OC23CCCCC3)cc1 | inactive: 79%
6 | COc1ccc(NC(=O)CN2C(=O)C(C)(C)c3ccccc32)cc1Cl | inactive: 51%
7 | N#Cc1nc(-c2ccc(COc3ccccc3)o2)oc1NCc1cccnc1 | inactive: 66%
8 | COc1ccccc1CN1CCC(CNS(=O)(=O)c2cc(-c3onc(C)c3C)ccc2OC)CC1 | inactive: 63%
9 | Cc1nn(-c2ccccc2)c(OC(=O)c2cccc(Br)c2)c1S(=O)(=O)c1ccccc1 | inactive: 76%
10 | Cc1ccc(-c2nnc(Nc3ccc(Br)cc3)c3ccccc23)cc1S(=O)(=O)NCC1CCCO1 (stereo not given) | inactive: 80%
11 | Cc1nc(N2CCCC2)c2c(C(=O)N3CCN(c4ccc(F)cc4)CC3)c(C)oc2n1 | inactive: 80%
12 | COC(=O)c1ccc(OCC2c3cc(OC)c(OC)cc3CCN2C(=O)c2ccccc2C)cc1 (stereo not given) | inactive: 66%
13 | O=C(OC1CSc2nc3ccccc3n2C1)c1ccco1 (stereo not given) | inactive: 104%
14 | CCc1cccc(CC)c1NC(=O)c1c(C)oc2ccc(O)c(CN3CCN(C)CC3)c12 | inactive: 86%
15 | Cc1cccc(N2CCN(C(=O)Cn3ncc4c3-c3cc(C)ccc3OC4)CC2C)c1 (stereo not given) | inactive: 45%
16 | CCOC(=O)c1cc2c(ccn2C)n1CC(=O)N1CCCC(C)C1 (stereo not given) | inactive: 99%
17 | O=C(CSc1nnc(Cc2ccccc2)n1Cc1ccco1)NC1CCCC1 | inactive: 102%
18 | Cc1cc(C)cc(NC(=O)c2cc(C)nc3c2c(C)nn3-c2ccccc2)c1 | active: -6%
19 | CCOc1ccc(NC(=O)c2cc3c(C)nn(-c4ccccc4)c3s2)cc1 | inactive: 78%
20 | Cc1ccc(OCC(=O)N(Cc2ccc(Cl)cc2)Cc2ccco2)cc1C | inactive: 85%
21 | CCOc1ccc(C2CC(=O)NC(NC(=O)c3ccc(C)cc3)=N2)cc1 (stereo not given) | inactive: 71%
22 | COc1ccc(NC(=O)Cn2c(=O)n(CCC(C)C)c(=O)c3cccnc32)cc1Cl | inactive: 89%
23 | COc1cccc(-c2nc(SCC(=O)NCC3CCCO3)c(-c3ccc(C)cc3)[nH]2)c1 (stereo not given) | inactive: 85%

Row | SMILES | survival
24 | COc1ccc(NC(=O)c2ccc3c(=O)n4nc(Nc5ccccc5C)sc4nc3c2)cc1Cl | inactive: 73%
25 | Cc1ccccc1Nc1cc(C(=O)NC2CCCC2)c2ccccc2n1 | inactive: 94%
26 | CC(C)NC(=O)C1CCC(Cn2c(=O)c3sccc3n(CC(=O)N3CCCC3)c2=O)CC1 (stereo not given) | inactive: 60%
27 | CCN(C(=O)c1cc2c(=O)oc3ccccc3c2s1)c1ccc(C)c(C)c1 | inactive: 19%
28 | Cc1ccc(Cn2c(C(=O)O)c(CNC3CCCCC3)c3ccc(C)cc32)cc1 | inactive: 87%
29 | CCCOc1ccc(NC(=O)CC2C(=O)N(c3ccccc3)C(=O)N2Cc2ccc(F)cc2)cc1 (stereo not given) | active: -1%
30 | Cc1cccc(Cn2cc(/C=C(/C#N)C(=O)Nc3cccc(Cl)c3)c3ccccc32)c1 | inactive: 77%
31 | CCOc1ccccc1NC(=O)Cn1c(=O)n(Cc2nc(C)no2)c(=O)c2ccccc21 | inactive: 68%
32 | CC(C)=CCc1c(O)cc(O)c2c1OC(c1ccccc1)CC2=O (stereo not given) | active: 1%
33 | CCC(=O)C1C(=O)CC(C)(C)CC1=O | inactive: 120%
34 | Cc1ccc(C(=O)NCC(c2ccc3c(c2)OCO3)N2CCN(c3ccc(F)cc3)CC2)cc1 (stereo not given) | inactive: 68%
35 | Cc1ccccc1C(=O)Nc1ccccc1OCc1cc(=O)n2ccccc2n1 | inactive: 59%
36 | O=C(COC(=O)c1cccs1)NCc1cccs1 | inactive: 103%
37 | CCOc1ccc(CCNC(=O)c2c(C)oc3ncn(CC(C)C)c(=O)c23)cc1 | inactive: 75%
38 | Cc1cccc(-c2nc(S(=O)(=O)c3ccc(Cl)cc3)c(N3CCCCCC3)o2)c1 | inactive: 41%
39 | Cc1cccc(CS(=O)(=O)Cc2ccc(C(=O)NCc3ccccc3)o2)c1 | inactive: 136%
40 | CCN(CC)c1nc2c(S(=O)(=O)c3ccccc3)nnn2c2ccc(Cl)cc12 | active: 9%
41 | CCOc1ccccc1CNC(=O)c1nc(-c2ccc(Cl)cc2)n2c1CCCCC2 | inactive: 73%
42 | CCc1ccc(NC(=O)Cn2nnnc2N)cc1 | inactive: 115%
43 | Nc1nnc(CSCc2ccccc2)s1 | inactive: 110%
44 | CC1CCN(C(=O)Cn2c(SCC(=O)NC(C)(C)C)nc3ccccc32)CC1 | inactive: 102%
45 | CSc1nc2ccc(S(=O)(=O)N3CCCCC3)cc2s1 | inactive: 105%
46 | Clc1ccccc1CNc1ncnc2c1nc1n2CCCC1 | inactive: 99%

Row | SMILES | survival
47 | COC(=O)c1c(NC(=O)COc2ccc(C)cc2Br)sc2c1CCCC2 | inactive: 44%
48 | Cc1cccc(NC(=O)C2CCCN(S(=O)(=O)c3ccc4c(c3)oc(=O)n4C)C2)c1C (stereo not given) | inactive: 89%
49 | Cc1ccc2oc(-c3cc(N=C/C=C/c4ccc5c(c4)OCO5)ccc3O)nc2c1 | inactive: 113%
50 | CCOc1ccc(N(C)S(=O)(=O)c2cc(-c3cc(C)no3)ccc2OC)cc1 | inactive: 72%
51 | Cc1ccc(CNC(=O)CN(C)S(=O)(=O)c2ccc3c(c2)c(=O)n(C)c(=O)n3C)cc1 | inactive: 84%
52 | COc1cccc(N2C(=O)C(CC(=O)Nc3ccccc3)N(CCc3sccc3C)C2=O)c1 (stereo not given) | inactive: 79%
53 | CCc1ccccc1NC(=O)CN1C(=O)C2CCCN2c2ccc(S(=O)(=O)N(CC)CC)cc21 (stereo not given) | inactive: 81%
54 | CCOC(=O)C(CC)Sc1ncnc2c1c(-c1ccccc1)cn2-c1ccc(OC)cc1 (stereo not given) | inactive: 70%
55 | Cc1c(CNC2CCC(C)CC2)c(C(=O)O)c(C)n1Cc1ccc(Cl)cc1 (stereo not given) | inactive: 117%
56 | O=C(CSc1nnc(-c2ccccc2)c(-c2ccccc2)n1)NCCc1ccccc1 | inactive: 68%
57 | CCS(=O)(=O)N1CC(=O)N(c2ccc(Cl)cc2C)C(C)(C(=O)NC2CCCCC2)C1 (stereo not given) | inactive: 91%
58 | O=C(NCCc1ccc(F)cc1)C(=O)NCC(c1cccs1)S(=O)(=O)c1ccc(Cl)cc1 (stereo not given) | inactive: 64%
59 | Cc1cc(C)c(OCC(=O)N(Cc2ccc(N(C)C)cc2)CC2CCCO2)c(C)c1 (stereo not given) | inactive: 81%
60 | Cc1cc(=O)n(CC(=O)N2CCCc3ccccc32)c2c1c(C)nn2-c1cccc(F)c1 | inactive: 58%
61 | Cc1ccc(C)c(N(C)C(=O)c2cc3c(s2)-c2ccccc2OC3)c1 | active: -2%
62 | COc1ccc(C(=O)Nc2ccccc2C(=O)Nc2ccccn2)cc1 | inactive: 113%
63 | CCn1c(=O)c2cc(C(=O)NCc3ccc(F)cc3Cl)sc2c2ccccc21 | inactive: 81%
64 | CCCCOC(=O)c1ccc(OC(=O)c2sc3ncn(Cc4cccc(F)c4)c(=O)c3c2C)cc1 | inactive: 59%
65 | CCOC(=O)c1[nH]c(C)c(CCC(=O)Nc2ccccc2OCC)c1C | inactive: 84%
66 | CCC(C)NC(=O)Cn1c(=O)n(CCCCCC(=O)Nc2ccccc2)c(=O)c2sccc21 (stereo not given) | inactive: 92%
67 | CCCN(C(=O)Cc1nc(-c2ccc(OC)cc2)no1)c1ccccc1C | inactive: 87%
68 | CCc1cccc(C)c1NC(=O)CCCn1c(C)c2cnn(-c3ccccc3)c(=O)c2c1C | inactive: 73%
69 | CN(C)CC(O)COc1ccc2ccccc2c1 (stereo not given) | inactive: 125%

Row | SMILES | survival
70 | Cn1c(=O)c2c(nc(NCCCCO)n2Cc2ccccc2Cl)n(C)c1=O | inactive: 77%
71 | COc1ccc(C(=O)Nc2nnc(SCc3cc(=O)c4cccc(F)c4[nH]3)s2)cc1 | inactive: 80%
72 | COc1ccc2c(C)c(CCC(=O)NCCc3ccc(OC)c(OC)c3)c(=O)oc2c1 | inactive: 80%
73 | CN1C(=O)CC(C(=O)Nc2ccc(C(=O)O)cc2)SC1=Nc1ccc(Cl)cc1 (stereo not given) | inactive: 75%
74 | CNc1nc2c(c(=O)[nH]c(=O)n2C)n1Cc1cccc2ccccc12 | inactive: 106%
75 | COc1cccc(-c2nnc(SCC(=O)N(C)c3ccccc3)o2)c1 | inactive: 85%
76 | CC(=O)Nc1cc(C(=O)NCc2ccc(F)cc2)ccc1S(=O)(=O)c1ccc(C)cc1 | inactive: 71%
77 | COc1ccc(NC(=O)c2cn3ccc(C)cc3n2)cc1 | inactive: 99%
78 | CC1CC2(C)CC(C)C1(COC(=O)Nc1ccccc1)CO2 (stereo not given) | inactive: 118%
79 | Cc1ccc2c(=O)cc(C(=O)Nc3ccc(S(=O)(=O)N4CCCCC4C)cc3)oc2c1C (stereo not given) | inactive: 88%
80 | CCN(CC)CCCNC(=O)Cn1ncc2c3ccccc3n(Cc3ccccc3)c2c1=O | inactive: 92%
81 | CCN(CC)c1ccc(NS(=O)(=O)c2cc(-c3onc(C)c3C)ccc2OC)c(C)c1 | inactive: 77%
82 | Cc1cc(C)nc(/N=C2\NC(=O)CC3C(=O)NCCN23)n1 (stereo not given) | inactive: 107%
83 | CC(=O)c1ccc(NC(=O)C(C)n2nc(-c3ccccc3)ccc2=O)cc1 (stereo not given) | inactive: 61%
84 | CCOC(=O)c1ccc(NC(=O)CC2C(=O)N(c3cccc(OC)c3)C(=O)N2Cc2cccnc2)cc1 (stereo not given) | inactive: 101%
85 | CCn1c2ccccc2c2cc(CN3CCN(Cc4ccc(Cl)cc4)CC3)ccc21 | active: -2%
86 | Cc1cc(C)n(C(C)CC(=O)Nc2cccc(C#N)c2)n1 (stereo not given) | inactive: 71%
87 | CCc1nc(Nc2ccc(F)c(Cl)c2)c2c3c(sc2n1)CCCC3 | active: -1%
88 | O=C(Cn1ncc2c3ccccc3n(Cc3cccc(Cl)c3)c2c1=O)NCCCc1ccccc1 | inactive: 84%
89 | COc1ccc(-c2c(C)nn3c(-c4ccccc4)cc(C)nc23)cc1OC | inactive: 59%
90 | Cc1cccc(C)c1NC(=O)Cn1cc(C(=O)c2ccco2)c2ccccc21 | inactive: 70%
